Measurements: the supplement of paper PMC3334620
The full ranking holds about 33,000 sequences; the median of “E-score (-0.5 to 0.5)” is about -0.012, and the highest 2% start at about 0.27. The list shows a part of the results.

What follows are sequences tested against T1, Vhr1 (UniProt P40522) (assay: PBM E-score (8-mer binding enrichment) (E-score (-0.5 to 0.5)); higher = stronger / more preferred TF binding; most listed sequences are background and not binding sites). Conditions: protein concentration: 200 nM; construct: GST-full length.
T1 sequence: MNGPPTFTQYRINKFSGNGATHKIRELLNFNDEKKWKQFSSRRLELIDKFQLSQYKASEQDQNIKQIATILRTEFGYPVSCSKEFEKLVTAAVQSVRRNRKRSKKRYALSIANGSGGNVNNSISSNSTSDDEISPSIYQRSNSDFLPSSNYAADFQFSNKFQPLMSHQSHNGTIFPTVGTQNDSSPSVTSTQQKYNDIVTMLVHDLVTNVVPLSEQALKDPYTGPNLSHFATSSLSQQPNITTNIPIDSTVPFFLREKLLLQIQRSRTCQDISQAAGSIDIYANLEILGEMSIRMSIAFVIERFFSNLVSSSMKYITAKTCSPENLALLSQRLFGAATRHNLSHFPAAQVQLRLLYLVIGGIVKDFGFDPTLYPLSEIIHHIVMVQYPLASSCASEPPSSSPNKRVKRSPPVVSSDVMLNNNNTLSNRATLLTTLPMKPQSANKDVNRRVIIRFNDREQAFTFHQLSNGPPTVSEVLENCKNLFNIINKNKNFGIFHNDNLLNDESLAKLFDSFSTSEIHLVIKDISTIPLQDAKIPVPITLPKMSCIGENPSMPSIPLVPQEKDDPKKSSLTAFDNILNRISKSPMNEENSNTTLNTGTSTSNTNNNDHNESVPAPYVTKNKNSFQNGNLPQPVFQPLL
How it was run: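 For each ungapped eight-base word taken together with its reverse complement, the Universal PBM Analysis Suite assigned an E-score. Binding data came from GST-tagged yeast transcription factors, applied at about 100-200 nM, on universal all-10-mer Agilent arrays made double-stranded by primer extension. Fluorescent anti-GST marked bound protein, and scans were normalised with masliner.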

Compared with AGCGGCCG, CGGCTTCC is higher in “PBM E-score” value: -0.07 for the first, 0.1 for the second.

Going from AACCCTCA to GCGCTAGC, the “PBM E-score” value falls from -0.156 to -0.157.

Compared with TGCTGAAA, AGCGCATC is lower in “PBM E-score” value: -0.167 for the first, -0.208 for the second.

Going from CATCGCGG to ATGCCATG, the “PBM E-score” value rises from 0.00396 to 0.024.

Going from CTGTCTCC to ACGCTCCT, the “PBM E-score” value falls from 0.0737 to -0.065.

First: TACAGGTA
Second: AAATCACT
The “PBM E-score” value of the first is lower: 0.0714 for the first, 0.149 for the second.

First: AAACCGGC
Second: CCTATCAC
The “PBM E-score” value of the first is higher: 0.081 for the first, -0.024 for the second.

Going from GCTTGCAC to CGAGACGA, the “PBM E-score” value rises from -0.0624 to -0.023.

Compared with GGCGCCCC, ATTAGGCA is lower in “PBM E-score” value: -0.0447 for the first, -0.0874 for the second.

Going from AGGAATAT to GTGCTAGA, the “PBM E-score” value falls from 0.0348 to -0.075.

First: GGAAAAAC
Second: GGCATTCA
The “PBM E-score” value of the first is higher: -0.0244 for the first, -0.14 for the second.

Compared with GCAGTGAC, CACGCGTA is lower in “PBM E-score” value: 0.222 for the first, -0.0315 for the second.

Compared with CTGTACCA, AATGCTGC is lower in “PBM E-score” value: 0.0202 for the first, -0.0845 for the second.

First: ATGACGTG
Second: ACGAAGCC
The “PBM E-score” value of the first is higher: -0.0163 for the first, -0.0181 for the second.

Going from GACCACGA to TCTATGCA, the “PBM E-score” value falls from 0.0877 to 0.00098.

Going from ACACTAAG to GAACATCC, the “PBM E-score” value rises from -0.0412 to 0.0511.

Going from CCCATACC to AACTAGAT, the “PBM E-score” value falls from 0.119 to -0.0779.

Compared with GACGGCGC, AGCGCAAA is lower in “PBM E-score” value: -0.058 for the first, -0.0778 for the second.

Going from ATAGTAAT to AGACCAGG, the “PBM E-score” value falls from 0.265 to -0.174.

Going from AGTTACAA to CGTCCTAC, the “PBM E-score” value falls from 0.127 to -0.0682.

First: TCCTTACA
Second: GCCACGCA
The “PBM E-score” value of the first is lower: -0.136 for the first, 0.0308 for the second.

Compared with AAGTGTGA, ATCTGGAA is higher in “PBM E-score” value: 0.0182 for the first, 0.0976 for the second.

Compared with CCGTACAC, CAAGGGGG is lower in “PBM E-score” value: 0.16 for the first, -0.0997 for the second.

First: CTCGTTAA
Second: AATTCGGA
The “PBM E-score” value of the first is higher: 0.067 for the first, 0.0232 for the second.

Going from CAACGTTG to GGCGTCCA, the “PBM E-score” value falls from 0.0963 to -0.172.

Compared with ATCTTTGC, ACGTTTAA is lower in “PBM E-score” value: 0.00796 for the first, -0.126 for the second.

First: AGTCAAAC
Second: GCAAACAA
The “PBM E-score” value of the first is lower: 0.0301 for the first, 0.0795 for the second.

Going from ACGGGTAT to CAACATCG, the “PBM E-score” value falls from 0.173 to 0.0602.

Compared with GGCAACTA, ACATAGGG is higher in “PBM E-score” value: 0.0177 for the first, 0.0435 for the second.

Going from GCTTTACA to CGGATCAG, the “PBM E-score” value rises from -0.215 to 0.181.

First: GATAAACA
Second: AGAATACT
The “PBM E-score” value of the first is higher: 0.082 for the first, 0.0167 for the second.

Going from AACTAGTA to AAGTGTCC, the “PBM E-score” value falls from 0.0154 to -0.305.

Going from CAACCAGA to AGCCTTGG, the “PBM E-score” value falls from 0.142 to -0.149.

Going from CCCAGAAG to CGAGGCTA, the “PBM E-score” value falls from 0.0196 to -0.0547.

Going from CAAGTAAC to CAACTAAA, the “PBM E-score” value falls from 0.0536 to -0.00523.

First: AACGAGTT
Second: CCCATTGA
The “PBM E-score” value of the first is lower: -0.117 for the first, -0.115 for the second.

Compared with GCCATCAC, ATGTATGA is higher in “PBM E-score” value: -0.0422 for the first, 0.25 for the second.

Compared with GCACTCTA, AAACTTTG is lower in “PBM E-score” value: -0.101 for the first, -0.161 for the second.

First: AACGAAAC
Second: GGCGTCAC
The “PBM E-score” value of the first is higher: 0.0391 for the first, -0.149 for the second.

Going from GGGCCCTA to ACGATCAG, the “PBM E-score” value rises from -0.175 to 0.161.

First: CTGAGCCA
Second: TGAAAGCA
The “PBM E-score” value of the first is higher: 0.247 for the first, -0.129 for the second.

Compared with AACATCTC, GCTCCAAC is higher in “PBM E-score” value: -0.155 for the first, 0.0292 for the second.

First: GTAACCTA
Second: CTTGATAC
The “PBM E-score” value of the first is higher: -0.0297 for the first, -0.0827 for the second.

Going from GAGCACTC to GGACACCA, the “PBM E-score” value rises from -0.0397 to 0.147.

Compared with CAGGCGCC, GCCATAAC is lower in “PBM E-score” value: 0.0921 for the first, -0.062 for the second.

Going from AAGCGCAC to AGGATTAC, the “PBM E-score” value rises from -0.0714 to -0.0618.

First: ATCGCCAC
Second: CTTCCACA
The “PBM E-score” value of the first is higher: 0.0747 for the first, -0.145 for the second.
